Test results from PubChem BioAssay AID1508623 (National Center for Advancing Translational Sciences (NCATS), 2021).
Out of some 48,000 compounds screened, about 450 (0.94%) were called active. About 19% were inconclusive and are not listed. Calls follow the shape of the dose curve; as a rule, active = well fitted inhibition curve with a large enough effect; inconclusive = small, poorly fitted or top-dose-only effect; inactive = no such curve, though single readings can be large or run the other way. Some of the results follow.

test: Primary qHTS for Identification of Small Molecule Inhibitors of Huntingtin Promoter Activity; details: HEK293 HTT promoter firefly luciferase reporter (activity 0% = vehicle and -100% = no light), 24 h; series mostly up to 57.5 µM; activity change, negative = inhibition: at the top concentration; also: nearly all actives have a fitted effect of over 50% in size
Summary of the method: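 HEK293 Fluc reporter, 2,500 cells/well, 24 h pre-culture; cpds up to 57.5 uM final, 24 h 37 degrees C; Dual-Glo, 10 min RT; normalized vehicle = 0%, zero RLU = -100%.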

Activity change, negative = inhibition, inactive:
Cc1ccc(NC(=O)c2c(C)oc3nc(C)nc(N4CCCC4)c23)c(C)c1 -3.98%
COc1ccc(NC(=O)c2c(NCc3sccc3C)sc3c2CCCCC3)c(OC)c1 -24.1%
CCOc1ccc(CCNC(=O)c2ccc(CS(=O)Cc3cccc(Cl)c3)o2)cc1 (centres undefined) -21.9%
COC(=O)c1ccc(NC(=O)CSc2ncc3c(n2)-c2cc(Cl)ccc2N(Cc2ccccc2)S3(=O)=O)cc1 -21.6%
O=S(=O)(c1ccc(F)cc1)N(Cc1nc(-c2ccc(Cl)cc2)no1)C1CCCCC1 -29.9%
Cc1c(NC(=O)c2cccc3c(Cl)cccc23)cccc1-c1nc2ccccc2o1 -30.3%
O=C(CCS(=O)(=O)c1cc(Br)cc2c1N(C(=O)C1CC1)CC2)NCc1ccccc1Cl -4.42%
COC(=O)c1sccc1S(=O)(=O)N(CC(=O)Nc1c(C)cccc1C)c1ccc(C)c(C)c1 -17.5%
CCC(C(=O)Nc1cc(F)ccc1F)n1nc(-c2cc(C)ccc2C)ccc1=O (centres undefined) -26%
CCOC(=O)N1CCc2c(sc3c2c(=O)n(Cc2ccccc2)c(=O)n3CC(=O)Nc2ccc(C)c(C)c2)C1 -5.21%
Cc1ccc(NC(=O)CCC(=O)N2CCSc3ccccc32)cc1Cl -32.8%
COC(=O)C(C)n1nnc2sc(-c3ccccc3)cc2c1=O (centres undefined) 23.5%
Cc1c(Cl)cccc1NC(=O)Nc1nnc(N(C)Cc2ccccc2)s1 -5.55%
Cc1c(N(C)C)c(=O)n(-c2ccccc2)n1C 20%
CC1=C(C(=O)NCc2ccccc2C)C2(CCCCC2)OC1=O -0.439%
CC(=O)c1ccc(NC(=O)Cn2cc(S(=O)(=O)Cc3ccccc3Cl)c3ccccc32)cc1 -24.5%
Cn1c(=O)c2c(nc(Oc3ccccc3)n2Cc2c(Cl)cccc2Cl)n(C)c1=O -4.29%
COc1ccc(N(CC(=O)Nc2cc(C)ccc2C)S(=O)(=O)c2ccc(OC)c(OC)c2)cc1 -49.8%
COCCCNC(=O)CSc1nc2cc3c(cc2c(=O)n1CCCC(=O)NCc1ccc(OC)cc1)OCO3 -13.1%
O=C(Nc1ccc(F)cc1F)c1ccc2c(O)c(S(=O)(=O)c3ccc(Cl)cc3)c(=O)[nH]c2c1 -3.7%
CCOc1ccc(NC(=O)CN2C(=O)COc3ccc(S(=O)(=O)NC4CCCC4)cc32)cc1 -19.2%
CCc1ccc(C2c3c(oc4ccc(F)cc4c3=O)C(=O)N2c2nc(C)c(C(=O)OC)s2)cc1 (centres undefined) -9.1%
O=C(Nc1c(C(=O)O)oc2ccccc12)c1ccc(C(F)(F)F)cc1 -22.1%
O=C(CSc1cn(CC(=O)N2CCOCC2)c2ccccc12)Nc1ccccc1 -20.4%
O=C(COCc1cc(-c2ccc3c(c2)OCO3)on1)NCc1ccccc1Cl -3.37%
NC(=O)c1ccc2[nH]ccc2c1 -3.44%
COc1ccccc1OCC(=O)NCc1nc(-c2ccc(Cl)cc2)no1 -16.9%
CCOc1ccc(C(=O)Nc2ccc(S(=O)(=O)Nc3nc(C)cc(C)n3)cc2)cc1OC -2.48%
Cc1ccccc1Cc1c(C)nc2nc(SCC(=O)NCCc3ccc(Cl)cc3)nn2c1C -13.7%
CC1=C(c2ccc(C)c(C)c2)S(=O)(=O)N(Cc2ccc(C(=O)NC(C)c3ccccc3)cc2)C1=O (centres undefined) -31%
O=C(COc1ccccc1)Nc1ccccc1OCc1cc(=O)n2ccccc2n1 3.03%
COc1ccc(CNC(=O)c2ccc(CS(=O)(=O)c3ccccc3OC)o2)cc1 -12.6%
Cc1ccc(C)c(-c2[nH]c3c(c2-c2c(-n4cccc4)n(C)c(=O)[nH]c2=O)c(=O)[nH]c(=O)n3C)c1 -10%
CCN(CC)S(=O)(=O)c1ccc2c(c1)N(CC(=O)N1CCN(c3ccc(F)cc3)CC1)C(=O)CO2 -7.8%
Cc1ccc(-c2nc(CCNC(=O)C(=O)Nc3ccc(C)cc3C)cs2)cc1 6.7%
CCOc1ccc(CCNC(=O)Cn2nc(-c3ccc(C)cc3)ccc2=O)cc1OCC -29.7%
COc1cc(CN2CCN(S(=O)(=O)c3ccccc3)CC2)cc(OC)c1O 6.09%
CCc1ccccc1NC(=O)C1=C(C)C(=O)OC12CCCCCC2 -2.3%
COc1cc(NC(=O)CSc2ncc(S(=O)(=O)c3ccc(Br)cc3)c(=O)[nH]2)cc(OC)c1 -1.27%
Cc1c2cnn(CC(=O)NCCc3ccccc3)c(=O)c2c(C)n1Cc1ccccc1 1.78%
Cc1cccc(NC(=O)C(=O)NCC(c2ccc3c(c2)OCO3)N2CCN(C)CC2)c1C (centres undefined) -11.5%
COc1ccc(CNC(=O)c2cc3c(=O)oc4ccc(C)cc4c3s2)c(OC)c1 -6.39%
COc1ccc(OC)c(NC(=O)c2cccn2-c2nnc(N3CCCCC3)s2)c1 -3.5%
CC[C@]1(O)C[C@H]2CN(CCc3c([nH]c4ccccc34)[C@@](C(=O)OC)(c3cc4c(cc3OC)N(C=O)[C@H]3[C@@](O)(C(=O)OC)[C@H](OC(C)=O)[C@]5(CC)C=CCN6CC[C@]43[C@@H]65)C2)C1 -25.9%
CCN(CC)S(=O)(=O)c1ccc2oc(C(=O)N(C)Cc3ccccc3)c(C)c2c1 -28.7%
COc1ccc(Cn2c(=O)c3oc4ccccc4c3n(Cc3ccc(F)cc3)c2=O)cc1 -3.8%
COc1ccc(CNC(=O)c2ccc(NC(=O)N3CCCCc4ccccc43)cc2)cc1 -27.9%
Cn1ccc2c(OCC(=O)Nc3cc(C(F)(F)F)ccc3Cl)cccc2c1=O 0%
CCOc1ccccc1NC(=O)CCn1nc(C)c(S(=O)(=O)N2CCCCC2)c1C -27.7%
COc1ccc(C2C=C(c3ccccc3)Nc3nc(NC(=O)/C=C/c4ccccc4)nn32)cc1 (centres undefined) -20.2%
CCN(CC)S(=O)(=O)c1ccc2c(c1)c(=O)c(C(=O)N1CCN(c3ccc(F)cc3)CC1)cn2C -9.74%
O=C(Cn1ncc2c3ccccc3n(Cc3cccc(Cl)c3)c2c1=O)NC1CCCCCC1 -6.61%
CCc1ccc(NC(=O)CSC2=Nc3ccccc3C3=NC(CC(=O)NCc4ccccc4)C(=O)N23)cc1 (centres undefined) -20%
COC(=O)CCN(c1ccccc1)S(=O)(=O)c1cc(-c2cc(C)no2)ccc1OC 5.69%
CCN1CCSc2ccc(C(=O)NCc3ccc(OC)cc3)cc21 -9.33%
O=C1CCSC2(C(=O)N(Cc3ccc(F)cc3)c3ccccc32)N1c1ccc(F)c(F)c1 (centres undefined) -26.2%
CCNC(=O)CC1C(=O)N(c2cccc(OC)c2)C(=O)N1Cc1ccc(OC)c(OC)c1 (centres undefined) -11.3%
Cc1nc2ncnn2c(C)c1CCC(=O)NCc1ccccc1Cl -3.77%
CCOc1ccccc1N(CC(=O)N1CCc2ccccc2C1)S(=O)(=O)c1ccccc1 -10.9%
CCOCc1ccccc1Nc1ncnc2onc(-c3ccc(Cl)cc3)c12 -17.6%
CCC(Sc1nncn2c1cc1oc(C)cc12)C(=O)Nc1ccc(F)cc1 (centres undefined) -1.01%
CCc1cccc(NC(=O)C(c2ccccc2)N2Cc3ccccc3C2=O)c1 (centres undefined) -32.1%
COCCn1c(=N)c(C(=O)NC(C)c2ccccc2)cc2c(=O)n3cc(C)ccc3nc21 (centres undefined) -0.735%
COc1ccccc1OCC(O)CO (centres undefined) -2.52%
CCc1ccccc1NC(=O)CSc1nnc2ccc3ccccc3n12 -11%
COC(=O)c1cc2oc3ccccc3c2n1Cc1nc(-c2ccccc2C)oc1C -23.2%
O=C(CSCc1cc(=O)c2cc(F)ccc2[nH]1)Nc1ccccc1Cl -18.6%
CCC(C)NC(=O)CCc1c(C)nc2nc(-c3cc(OC)cc(OC)c3)nn2c1C (centres undefined) -8.93%
Cc1ccc(NC(=O)[C@@H](c2ccccc2)N2Cc3ccccc3C2=O)cc1 -4.21%
COc1ccc(OC)c(CCNc2nc3ccccc3c3nc(-c4cccnc4)nn23)c1 -10.8%
Brc1ccc(-n2nc(-c3ccccc3)c3cnc4cc5c(cc4c32)OCO5)cc1 -11.3%
Cc1ccc2[nH]c(CSc3nnc(NC(=O)c4ccc(Cl)cc4)s3)cc(=O)c2c1 16.5%
CCCN(CCC)C(=O)c1c2c(nc3ccccc13)C(=O)N(C1CCCCC1)C2 -14.9%
Cc1cc(=O)[nH]c(=S)[nH]1 0.717%
Cc1cc(S(=O)(=O)C(CNC(=O)COc2ccc(Cl)cc2)c2cccs2)ccc1F (centres undefined) -19.2%
Cc1ccc(CCNC(=O)C2CCN(Cc3nc(-c4ccccc4C)oc3C)CC2)cc1 -25%
CCCN(C(=O)c1coc(=O)c2ccccc12)c1ccccc1C -23.2%
Cc1ccc(N2C(=O)CSC23C(=O)N(CC(=O)Nc2ccc(C(C)C)cc2)c2ccccc23)cc1C (centres undefined) -28.5%
COc1ccc(-n2nc(C(=O)Nc3cccc(C)n3)c3c4ccccc4n(C)c3c2=O)cc1Cl -21.4%
CCOc1ccc(CCNC(=O)CCc2cn(Cc3ccc(F)cc3)c3ccccc23)cc1 -23.7%
Cc1coc2cc3oc(=O)c(CC(=O)NCCc4ccccc4)c(C)c3cc12 -1.45%
CCOc1ccc(NC(=O)Cn2cc(C(=O)c3ccco3)c3ccccc32)cc1 -1.4%
CCn1c(=O)cc(OCC(=O)Nc2cc(Cl)c(OC)cc2OC)c2ccccc21 -5.36%
COc1cc(NC(=O)c2cc(S(=O)(=O)N3CCc4ccccc43)cn2C)cc(OC)c1OC -28.6%
Cc1ccc(C)c(CN2C(=O)c3ccccc3S(=O)(=O)c3ccc(C(=O)N4CCCCC4)cc32)c1 -14.4%
CC(=O)[C@H]1CC[C@H]2[C@@H]3C=CC4=CC(=O)CC[C@@]4(C)[C@@H]3CC[C@]12C -19.4%
COc1ccc(OC)c(NC(=O)c2cnn(-c3ccc(C)cc3)c2C2CCNCC2)c1 -1.06%
CCc1ccccc1N(C)C(=O)c1cc2c(=O)oc3ccccc3c2s1 -6.84%
CCCCCOC(=O)Nc1nc(=O)n([C@@H]2O[C@H](C)[C@@H](O)C2O)cc1F (some centres undefined) -2.64%
O=C(COc1ccccc1[N+](=O)[O-])N(Cc1ccco1)c1ccccn1 1.76%
O=C(C1CCC1)N1CCc2cc(S(=O)(=O)NCc3ccc(F)cc3)ccc21 -27.6%
COc1ccc(C)cc1NC(=O)N1CCCn2nc(C)cc21 -15.4%
CCOc1ccccc1NC(=O)Cn1c(=O)n(-c2cccc(C)c2)c(=O)c2c1c1cc(OC)ccc1n2C -6.11%
O=C(Cn1c(=O)n(CC2CCC(C(=O)NCCc3ccccc3)CC2)c(=O)c2ccccc21)Nc1cccc(F)c1 (centres undefined) -7.12%
